Results from PubChem BioAssay AID1508623 (National Center for Advancing Translational Sciences (NCATS), 2021).
Out of some 48,000 compounds screened, about 450 (0.94%) were called active. Roughly 19% stayed inconclusive and do not appear here. Calls follow the shape of the dose curve; as a rule, active = well fitted inhibition curve with a large enough effect; inconclusive = small, poorly fitted or top-dose-only effect; inactive = no such curve, though single readings can be large or run the other way. This is one part of the list.

experiment: Primary qHTS for Identification of Small Molecule Inhibitors of Huntingtin Promoter Activity; settings: HEK293 HTT promoter firefly luciferase reporter (activity 0% = vehicle and -100% = no light), 24 h; series mostly up to 57.5 µM; activity change, negative = inhibition: at the top concentration; also: nearly all actives have a fitted effect of over 50% in size
Method in brief: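 Firefly luciferase signal from promoter-reporter HEK293 cells was scaled between vehicle (0%) and zero RLU (-100%). Compounds were tested at final concentrations of up to 57.5 uM over 24 h at 37 degrees C. PTC124 at 50 uM final served as control inhibitor.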

Activity change, negative = inhibition, inactive:
Cc1ccc(NC(=O)CCNS(=O)(=O)c2ccc3c(c2)CCCC(=O)N3)cc1 -8.38%
CC1=C(C(=O)Nc2cccc(C(F)(F)F)c2)C(c2ccccc2)n2ncnc2N1 (stereo not given) -9.94%
CCc1cccc(C)c1NC(=O)CCn1nc(C)c2c(C)n(-c3ccccc3)nc2c1=O -35.8%
CCOc1ccccc1O[C@H](c1ccccc1)[C@H]1CNCCO1 -3.8%
COc1cccc(N2CC(NC(=O)C3CC3)CC2=O)c1 (stereo not given) -4.02%
COc1ccc(NC(=O)Cn2c(=O)n(-c3ccc(C)c(C)c3)c(=O)c3c(C)c(C)sc32)cc1 -20.6%
Cc1ccc(CCNC(=O)c2ccc(NC(=O)N3CCSc4ccccc43)cc2)cc1 -7.39%
CCOc1ccc2c(c1)c(=O)c(C(=O)c1ccc(CC)cc1)cn2CC(=O)Nc1ccccc1C -8.75%
Cc1ccc(C)c(N2CCN(c3nc4c(S(=O)(=O)c5ccccc5)nnn4c4ccc(Cl)cc34)CC2)c1 -2.04%
CCOC(=O)c1c(S(=O)(=O)N2CCC(C(=O)Nc3cccc(C)n3)CC2)c(C)n(C)c1C -7.97%
CCC(C)NC(=O)Cn1c(=O)ccc2cc(S(=O)(=O)N3CCCC3)ccc21 (stereo not given) 12.8%
CCCN(C(=O)c1cc2c(=O)oc3ccccc3c2s1)c1ccccc1C -6.74%
Cc1ccc(NC(=O)Cn2nnc(C(=O)NCCc3ccccc3)c2N)cc1Cl 4.4%
COCC(=O)N1c2nc(-c3ccco3)nn2C2(CCCCC2)[C@@H]2CCCC[C@@H]21 -14.5%
CCc1ccc2c(c1)c(=O)c(S(=O)(=O)c1ccccc1)cn2CC(=O)Nc1ccc(OC)cc1 -17.3%
O=C(CSc1nc2ccsc2c(=O)n1Cc1ccccc1Cl)NCc1ccc(Cl)cc1 -4.15%
O=C(CSc1nc2ccccc2n1Cc1c(F)cccc1Cl)N1CCN(c2ccc(F)cc2)CC1 -0.869%
CCOc1cc(CNC(=O)c2ccc3nc(CCc4ccccc4)oc3c2)ccc1OC -12.3%
COc1ccc(NC(=O)CN2C(=O)C3(SCC(=O)N3c3cccc(OC)c3)c3ccccc32)cc1 (stereo not given) 0.0444%
Cc1ccc(S(=O)(=O)NCCc2csc3nc(-c4ccccc4C)nn23)cc1 -19.7%
O=C(Nc1nnc(SCc2cc(=O)n3cc(Cl)ccc3n2)s1)c1cccc(F)c1 1.34%
O=C(c1ccc2c(Cl)c3c(nc2c1)CCCC3)N1CCN(c2ccccc2F)CC1 -11.3%
COc1ccc(N2CC(NC(=O)c3c(F)cccc3Cl)CC2=O)cc1OC (stereo not given) -9.74%
Cc1ccccc1NC(=O)c1cnc2sc(N3CCCC3)nn2c1=O 10.8%
CCC(C(=O)N1CCN(c2ccccc2)CC1)n1nc(C)c2sc3ccccc3c2c1=O (stereo not given) -5.72%
COc1cccc(C2=CC(c3ccccc3F)n3c(nc4ccccc43)N2)c1 (stereo not given) 24.5%
CCOc1ccc(N2CC(c3nc4ccccc4n3CCOc3ccc(CC)cc3)CC2=O)cc1 (stereo not given) -16.2%
Cc1cc(C)cc(NC(=O)Cn2c3ncccc3c(=O)n2-c2ccc(C)c(C)c2)c1 -24.2%
O=C(NCc1ccccc1)c1ccc2c(c1)nc1n2CCCCC1 18.7%
Cc1ccc(CSc2ncc(Cl)c(C(=O)Nc3sc4c(c3C(N)=O)CCCC4)n2)cc1 -7.31%
O=C(Cn1cnc2nc3c(cc2c1=O)CCCC3)N1CCN(c2ccccc2)CC1 -11.4%
Cc1cccc(C#Cc2ccccc2)n1 -2.33%
Cc1cccc(N2CCN(Cc3nnc(-c4ccc5c(c4)OCO5)o3)CC2)c1C -8.95%
CCc1nn2c(=O)cc(COc3ccc(/C=C(\C#N)C(=O)Nc4ccc(C)cc4)cc3)nc2s1 -6.47%
O=C(Cn1c(=O)c2cccn2c2ccc(F)cc21)N1CCN(c2ccccc2)CC1 -2.72%
CCc1ccc(NC(=O)Cn2c(=O)n(CC3CCCO3)c(=O)c3cc(OC)c(OC)cc32)cc1 (stereo not given) -5.66%
COc1ccc(NC(=O)Nc2ccccc2OCc2cc(=O)n3ccccc3n2)c(OC)c1 4.16%
O=C(CN1C(=O)C2CCCCN2c2ccc(C(=O)N3CCCC3)cc21)NCc1cccc(F)c1 (stereo not given) -4.28%
C[C@H](O)C(=O)Nc1c(I)c(C(=O)NC(CO)CO)c(I)c(C(=O)NC(CO)CO)c1I 13%
CCN(CC)c1ccc(NC(=O)CN2C(=O)c3cccnc3Sc3ccccc32)c(C)c1 21%
CC(=O)N1CCc2c(sc3c2c(=O)n(CCc2ccccc2)c(=O)n3Cc2cccc(C)c2)C1 -25%
O=c1c(=O)n(Cc2c(F)cccc2Cl)ccn1Cc1ccccc1 -15.1%
CC(C)NC(=O)Cn1nc(N2CCN(c3ccccc3)CC2)ccc1=O -1.39%
CCOc1cc(C2C(C(=O)OC)=C(C)NC3=C2C(=O)c2ccccc23)c(Br)cc1O (stereo not given) -29.7%
Cc1ccc(-c2c3c(=O)n(C)c(=O)n(C)c3cn2-c2cc(C)ccc2O)cc1 -19.6%
COc1ccc(N2CCN(C3C(=O)c4ccccc4N3C(C)=O)CC2)cc1 (stereo not given) -29.5%
COc1cccc(NC(=O)Cn2c(=O)n(CC(=O)NCCc3ccccc3)c(=O)c3sccc32)c1 -11%
Cc1c(Cl)cccc1NC(=O)CSc1nc(=O)n(Cc2cccnc2)c2c1CCC2 5.6%
COC(=O)C1CCN(C(c2ccccc2)c2sc3nc(-c4ccco4)nn3c2O)CC1 (stereo not given) -7.79%
O=C1CC(c2nc(-c3ccccc3)no2)CN1c1ccc2c(c1)OCCO2 (stereo not given) -12.7%
Cc1ccc(Cn2cc(S(=O)(=O)c3ccc(C)cc3)c(=O)c3cc(F)c(N4CCCC4)cc32)cc1 5.5%
COc1ccc2c(c1)c1c(c(=O)n(Cc3ccccc3)c(=O)n1CC(=O)Nc1ccc(C)cc1C)n2C -11.4%
O=C(Nc1nnc(S(=O)(=O)N2CCCCCC2)s1)c1ccccc1Br -11.7%
c1ccc(CCNc2nc(-c3ccccc3)cs2)cc1 30.9%
Cc1ccc(NC(=O)C2CCCN(S(=O)(=O)c3c(C)n[nH]c3C)C2)cc1C (stereo not given) -14.5%
CCn1cc2nc(SCc3ccc(F)cc3)n(Cc3ccc(Cl)cc3)c(=O)c2n1 -2.43%
CCCS(=O)(=O)N1CC(=O)N(c2ccc(Cl)cc2)C(C)(C(=O)NC2CCCC2)C1 (stereo not given) 6.13%
CC(=O)Nc1ccc(Nc2nnc(-c3ccc(C)c(S(N)(=O)=O)c3)c3ccccc23)cc1 -11.8%
COCCn1c(SCC(=O)Nc2ccc(C(F)(F)F)cc2)nc2c([nH]c3ccccc32)c1=O -13.4%
O=C(Nc1ccc(S(=O)(=O)N(Cc2ccccc2)c2ccccc2)cc1)c1ccc([N+](=O)[O-])cc1 -22.2%
